“And” between values parts separate entries of the source, which are not always exact repeats. Equal entries are not always repeated.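 The compound was tested at five concentrations on cells cultured in 96-well plates, with a 48-hour exposure period. GI50: concentration for 50% inhibition of growth. At the TGI there is no net growth.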 Numbered stars: 1 amine (or outer) side, 2 acyl side, 3 side chain; on linkers, the order of the positions; unused ones are H or OH. Bridge positions count the residues as written; N and C are the ends. Square brackets hold non-standard residues; d marks the D form. Peptide text beside a SMILES is read from it. I, II: the chains in the order shown. Actinocin(9to1) = Cc1c2oc3c(C)ccc(C(=O)[*:1])c3nc-2c(C(=O)[*:2])c(N)c1=O; NMeF = CN[CH](Cc1ccccc1)C(=O)O; Sar = CNCC(=O)O
Test system: NCI-H322M lung
Test: inhibition of tumour cell growth, NCI panel, 48 h

Row | Compound | GI50 [µM] | TGI
1 | CCCCCn1c(C)cc(/C=C\c2ccc3cc(C)ccc3[n+]2C)c1C | 0.436 | 1.67 µM
2 | CN(C)CC/C(=N\Nc1ccc(Cl)cc1Cl)c1ccccc1 |  | 66.7 µM
3 | Cc1cc(C(=O)c2ccccc2)c(C)c2c1[nH]c1ccc(Cl)cc12 | 0.188 | 27 µM
4 | Cc1cn(S(=O)(=O)c2ccccc2)c2c(OCc3ccccc3)cc(NS(C)(=O)=O)cc12 |  | > 100 µM
5 | C=CC(C)(C)C(=C)C(=O)Nc1ccccc1I |  | > 100 µM
6 | CN1C/C(=C\C=C\c2ccccc2)C(=O)/C(=C/C=C/c2ccccc2)C1 |  | > 100 µM
7 | CC1(C)CCc2c(c(N=Nc3ccc(F)cc3)c3ccccc3c2O)O1 |  | > 100 µM
8 | C=CCC(C(=O)Nc1cccc2[nH]cnc12)C(=O)OCC (stereo not drawn) |  | > 100 µM
9 | O=C1C(Cl)=C(Nc2cccc(O)c2)C(=O)N1Cc1ccc(Cl)cc1Cl | 11.1 | 23.7 µM
10 | O=C(O)C(Oc1nc(=S)[nH]c(=S)[nH]1)(c1ccc(Cl)cc1)c1ccc(Cl)cc1 |  | > 100 µM
11 | C[C@]12CCC(=O)C=C1CC[C@@H]1C2CC[C@]2(C)c3nn(-c4ccccc4)nc3CC12 (stereo partly drawn) |  | > 100 µM
12 | CC(=O)c1c2n(n(-c3ccccc3)c1=O)C(=O)c1nccnc1-2 |  | > 100 µM
13 | C=CCn1c(-c2ccc([N+](=O)[O-])cc2)csc1=N |  | > 100 µM
14 | CN(C)CCCn1c(-c2nonc2N)nc2cnccc21 | > 25 | > 25 µM
15 | CC(=O)[CH-]C(=O)c1ccccc1.CC(=O)[CH-]C(=O)c1ccccc1.CC[O-].O=C1c2ccccc2C(=O)c2c1ccc(O)c2[O-].[Ti+4] |  | > 100 µM
16 | S=c1[nH]c2ccc(I)cc2c(=S)n1Cc1ccccc1 |  | 29 µM
17 | Cc1ccc(-c2cc(O)c(-c3ccc(C)cc3C)cc2O)c(C)c1 | 19 | 55.4 µM
18 | O=C1CC2CCC(C1)S2=O (stereo not drawn) |  | > 100 µM
19 | C/C(=N\NC(=S)N(C)C)c1ccccn1 |  | 13.7 µM
20 | CCOC(=O)/C=C(\C(=O)OCC)n1ccc(=O)[nH]c1=O |  | 98.2 µM
21 | Brc1ccc2c(-c3csc(-c4c[nH]c5ccccc45)n3)c[nH]c2c1 |  | 38.3 µM
22 | O=C1c2ccccc2C(=O)c2[nH]c(Cc3ccc(F)cc3)nc21 |  | 34.5 µM
23 | COc1ccccc1C(=O)N(C)c1ccc(Cl)c(C(=O)OC(C)C)c1 |  | > 100 µM
24 | CC(=O)N/C(=C\c1ccc(Cc2nc3c([nH]2)C(=O)c2ccccc2C3=O)cc1)c1nc2c([nH]1)C(=O)c1ccccc1C2=O |  | > 100 µM

Row | Compound | GI50 [µM] | TGI
25 | O=C(O)Cn1cc([N+](=O)[O-])c(=O)c2ccccc21 |  | > 100 µM
26 | O=[N+]([O-])C(Cl)=C/C(=C(\Cl)SCc1ccccc1)[N+](=O)[O-] |  | 97.2 µM
27 | O=c1ccc2nc(-c3ccccn3)nn(-c3ccccc3)c-2c1 | 16.3 | 30.2 µM
28 | Oc1ccc(N=Nc2ccccn2)c(O)c1 | 1.16 | > 100 µM
29 | O=C(O)/C(=C\c1ccncc1)c1cccc2ccccc12 |  | > 100 µM
30 | CCN1CCC(O)(/C=C/c2ccc(C(C)C)cc2)C(C(=O)/C=C/c2ccc(C(C)C)cc2)C1 (stereo not drawn) |  | 13.9 µM
31 | CC(=C/c1ccccc1)/C=C1/NC(=S)N(/C=C2\C(=O)Oc3ccccc3C2=O)C1=O |  | > 100 µM
32 | CCCCCCCCCCC(C)CCCCCCC(=O)O (stereo not drawn) |  | > 100 µM
33 | O=C1C(Cl)=C(Nc2cccc(C(F)(F)F)c2)C(=O)N1Cc1ccc(Cl)cc1 | 1.68 | 11.7 µM
34 | CN(C)C(=O)Oc1c(-c2ccccc2)c(=O)n2c3ccccc3n3c(=O)n(C)c(=O)c1c23 |  | > 100 µM
35 | CN1CCN(C2=CC(=O)c3c(O)ccc(O)c3C2=O)CC1 |  | 2.88 µM
36 | O=C(CSc1nc2ccccc2c(=O)n1-c1ccccc1)N=Nc1c(O)[nH]c2ccc(F)cc12 |  | 4.82 µM
37 | CC(C)(C)[Si](C)(C)OCC1OC(n2cnc3c(=O)[nH]c(N)nc32)C(O[Si](C)(C)C(C)(C)C)C1O[Si](C)(C)C(C)(C)C (stereo not drawn) |  | 8.74 µM
38 | CCC(NC1=NCCO1)c1cccs1 (stereo not drawn) |  | 32.4 µM
39 | O=C(CCC(=O)C1CCC/C1=N/O)Nc1ccc(Cl)cc1 (stereo not drawn) |  | > 100 µM
40 | CCOC(=O)N1CCC(=C2c3ccc(Cl)cc3CCc3cccnc32)CC1 |  | 24.1 µM
41 | CCOC(=O)[C@@H]1ON2OC(OC3CCCC3(c3ccccc3)c3ccccc3)C(OC(C)=O)[C@H]3OC(=O)[C@@H]1C32 (stereo partly drawn) |  | > 100 µM
42 | COc1cc(CS(=O)c2ccc(O)cc2)cc(OC)c1OC (stereo not drawn) |  | > 100 µM
43 | Nc1ncc(-c2cccc(S(N)(=O)=O)c2)c2scc(-c3ccc(F)c(Cl)c3)c12 | 8.8 | > 25 µM
44 | Cc1c([N+](=O)[O-])oc2ccc3ccccc3c12 |  | > 100 µM
45 | Cc1c2oc3c(C)ccc(C(=O)NC4C(=O)NC(C(C)C)C(=O)N5CCCC5C(=O)N(C)CC(=O)N(C)C(Cc5ccccc5)C(=O)OC4C)c3nc-2c(C(=O)NC2C(=O)NC(C(C)C)C(=O)N3CCCC3C(=O)N(C)CC(=O)N(C)C(Cc3ccccc3)C(=O)OC2C)c(N)c1=O (stereo not drawn) (I: TVP[Sar][NMeF] / II: TVP[Sar][NMeF]; ester I:1-I:C, II:1-II:C; linker I:N-II:N via Actinocin(9to1); configuration not given here) |  | < 0.0432 µM and 0.422 µM
46 | O=C(O)C(=O)/C=C(\O)c1ccc(Br)cc1 |  | > 100 µM
47 | Oc1cc(Br)cc2cc(Cl)cnc12 |  | > 100 µM
48 | C=C(C)CNC(=S)N(N)c1ccc2ccccc2c1 |  | > 100 µM

Row | Compound | GI50 [µM] | TGI
49 | O=C(O)c1cc2ccccc2c2c1C(=O)c1ccccc1-2 |  | > 100 µM
50 | CC(C)(C)CC(C)(C)c1ccc(O)c(C[N+](C)(C)[O-])c1 |  | > 100 µM
51 | COc1ccc(N2C(=O)C3c4[nH]c5ccccc5c4C4CCCCC4C3C2=O)cc1 (stereo not drawn) |  | 79.5 µM
52 | CC#Cc1nc(Nc2cc(C)[nH]n2)c2ccccc2n1 | 11 | 38.1 µM
53 | Cc1sc2nc3n(c(=O)c2c1C)N=CN(c1ccc(F)cc1)C3 |  | > 100 µM
54 | O=C1OCC2=C1C(c1ccccc1)c1cc3c(cc1N2CCO)OCCO3 (stereo not drawn) | 2.52 | > 50 µM
55 | Oc1ccc(Cl)cc1C1=NC(/N=C\c2ccccc2)=NC(c2ccccc2)C1 (stereo not drawn) |  | > 100 µM
56 | O=C(NC(=O)c1ccccc1[N+](=O)[O-])Nc1ccc(Oc2ncc(Cl)cn2)c(C(F)(F)F)c1 |  | > 83.8 µM
57 | CCCCCCCCCCCCCCCCCC(=O)Nc1ccn(C2OC(CO)C(O)C2O)c(=O)n1 (stereo not drawn) |  | > 100 µM
58 | CC1=NN(c2nc(N)nc(/C=C\c3ccc([N+](=O)[O-])s3)n2)C(C)(C)C1 | > 100 | > 100 µM
59 | NC(=S)NN=C1CSSC1 | 2.68 | 38.7 µM
60 | CCN(CC)C(=S)[S][Bi]([S]C(=S)N(CC)CC)[S]C(=S)N(CC)CC | 1.75 | 3.14 µM
61 | CCOc1ccc2c(c1)c(=O)c1c(NCCN(CC)CC)ccc3nnn2c31 |  | 33.3 µM
62 | O=Nc1c(-c2c(O)[nH]c3ccc(Br)cc23)[nH]c2ccccc12 | 3.98 | 95.1 µM
63 | OC1C[C@H](c2ccccc2)C2(C(O)c3ccccc3C2O)[C@@H](c2ccccc2)C1 (stereo partly drawn) |  | > 100 µM
64 | CC[C@H](C)C(=O)O[C@H]1C[C@H](O)C=C2C=C[C@H](C)[C@H](CC[C@@H](O)C[C@@H](O)CC(=O)O)[C@H]21 | > 100 | > 100 µM
65 | Cc1cccc2c(O)cc(=O)oc12 |  | > 100 µM
66 | CCN(CC)CCNC(=O)c1cccc2nc3ccccc3nc12 |  | 35.1 µM
67 | CC1=C(C)C(=O)C(C2=CC(=O)C=CC2=O)=C(C2=CC(=O)C=CC2=O)C1=O |  | > 100 µM
68 | CCC[C@@H]1C(=O)N=C(N)N1C(=O)OCc1ccccc1 |  | > 100 µM
69 | Brc1cc2c(cc1Br)CN(c1ccccc1)C2 |  | > 100 µM
70 | N.N.O=P([O-])([O-])C1(P(=O)([O-])[O-])CCCCCN1.[Pt+2] | > 100 | > 100 µM
71 | [N-]=[N+]=Nc1c([N+](=O)[O-])c(=O)n2c3c(cccc13)CCC2 |  | > 60.7 µM

Reference: PubChem BioAssay (NCI)
